{
  "source": "the antibiotic and cytotoxicity screens of Wong et al. (2023)",
  "note": "The list shows a part of the results.",
  "data": [
    {"system": "S. aureus RN4220", "assay": "growth inhibition call (relative growth <= 0.2)", "conditions": "50 µM", "values": [
      {"molecule": "CC(=O)OCC=C(C)CCC=C(C)CCC=C(C)CCC=C(C)CCC=C(C)CCC=C(C)CCC=C(C)CCC=C(C)CCC=C(C)C", "growth inhibition call": "inactive"},
      {"molecule": "NC1(C(=O)O)CCC1", "growth inhibition call": "inactive"},
      {"molecule": "O=C(Nc1ccccc1)N1c2ccccc2CCc2ccccc21", "growth inhibition call": "inactive"},
      {"molecule": "C[C@H](CO)N1C[C@H](C)[C@@H](CN(C)C)Oc2cc(C#C[C@@H](C)O)ccc2S1(=O)=O", "growth inhibition call": "inactive"},
      {"molecule": "COc1ccc(CN(C)C[C@H]2OCCCC[C@@H](C)Oc3ccc(NC(=O)Nc4ccc(OC)cc4)cc3C(=O)N([C@H](C)CO)C[C@H]2C)cc1", "growth inhibition call": "inactive"},
      {"molecule": "CNC[C@@H]1Oc2ccc(NS(=O)(=O)c3cn(C)cn3)cc2CC(=O)N([C@@H](C)CO)C[C@H]1C", "growth inhibition call": "inactive"},
      {"molecule": "CO[C@H]1CN(C)C(=O)c2ccc(NC(=O)C3CC3)cc2OC[C@H](C)N(C(=O)C2CCOCC2)C[C@@H]1C", "growth inhibition call": "inactive"},
      {"molecule": "C[C@H](CO)N1C[C@H](C)[C@@H](CN(C)S(=O)(=O)c2ccc(Cl)cc2)Oc2ccc(NC(=O)Nc3cccc4ccccc34)cc2C1=O", "growth inhibition call": "inactive"},
      {"molecule": "Cc1noc(C)c1S(=O)(=O)N(C)C[C@H]1Oc2c(NC(=O)C3CC3)cccc2C(=O)N([C@H](C)CO)C[C@H]1C", "growth inhibition call": "inactive"},
      {"molecule": "COc1ccc(CNC(=O)C[C@@H]2CC[C@@H]3[C@@H](COc4ccc(NC(=O)C(C)C)cc4C(=O)N3C)O2)cc1", "growth inhibition call": "inactive"},
      {"molecule": "C[C@@H]1CCCCO[C@H](CN(C)C(=O)Cc2ccccc2)[C@@H](C)CN([C@@H](C)CO)C(=O)c2cc(NC(=O)Nc3ccccc3)ccc2O1", "growth inhibition call": "inactive"},
      {"molecule": "C[C@@H]1CN([C@@H](C)CO)S(=O)(=O)c2ccc(-c3cncnc3)cc2O[C@@H]1CN(C)C(=O)C1CCCCC1", "growth inhibition call": "inactive"},
      {"molecule": "COc1ccc(-c2cnc3c(c2)C(=O)N([C@@H](C)CO)C[C@H](C)[C@H](CN(C)C(=O)C2CCOCC2)O3)cc1", "growth inhibition call": "inactive"},
      {"molecule": "COc1cccc(-n2cc(C(=O)NO)nn2)c1", "growth inhibition call": "inactive"},
      {"molecule": "O=C(Nc1ccn([C@H]2O[C@H](CO)[C@@H](O)[C@@H]2O)c(=O)n1)c1ccccc1", "growth inhibition call": "inactive"},
      {"molecule": "C[C@@H]1CCCCO[C@@H](CN(C)Cc2ccc(Cl)c(Cl)c2)[C@@H](C)CN([C@H](C)CO)C(=O)c2cc(NC(=O)c3ccncc3)ccc2O1", "growth inhibition call": "inactive"},
      {"molecule": "C[C@@H]1CN([C@H](C)CO)S(=O)(=O)c2ccc(C#CCC3CCCC3)cc2O[C@H]1CN(C)C(=O)CN(C)C", "growth inhibition call": "inactive"},
      {"molecule": "C[C@@H]1CCCCO[C@H](CN(C)S(=O)(=O)c2ccc(F)cc2)[C@@H](C)CN([C@H](C)CO)C(=O)c2cc(NC(=O)Nc3cccc4ccccc34)ccc2O1", "growth inhibition call": "inactive"},
      {"molecule": "CCN1[C@@H]2c3ccc(-c4ccncc4)c(=O)n3C[C@@H]2[C@@H](CO)[C@@H]1C(=O)NCCc1cn(C)cn1", "growth inhibition call": "inactive"},
      {"molecule": "COc1ccc(S(=O)(=O)Nc2ccc3c(c2)C(=O)N([C@@H](C)CO)C[C@H](C)[C@@H](CN(C)C(=O)Nc2ccccc2)OCCCC[C@H](C)O3)cc1", "growth inhibition call": "inactive"},
      {"molecule": "C[C@@H]1CN([C@H](C)CO)C(=O)Cc2cc(NS(=O)(=O)c3cccs3)ccc2O[C@@H]1CN(C)S(=O)(=O)c1cccs1", "growth inhibition call": "inactive"},
      {"molecule": "C[C@H]1CN([C@@H](C)CO)S(=O)(=O)c2ccc(C#Cc3cccc(F)c3)cc2O[C@@H]1CN(C)S(=O)(=O)c1cn(C)cn1", "growth inhibition call": "inactive"},
      {"molecule": "C[C@H](NC(=O)c1c(N)nn2cccnc12)c1cc2cccc(C#Cc3cnn(C)c3)c2c(=O)n1-c1ccccc1", "growth inhibition call": "inactive"},
      {"molecule": "C[C@@H]1CCCCO[C@@H](CN(C)Cc2ccc(C(=O)O)cc2)[C@H](C)CN([C@@H](C)CO)C(=O)c2cc(NC(=O)C3CCCCC3)ccc2O1", "growth inhibition call": "inactive"},
      {"molecule": "Cc1nnsc1C(=O)NCC1(CO)CC1", "growth inhibition call": "inactive"},
      {"molecule": "COc1ccc(NC(=O)N(C)C[C@@H]2OCc3cn(nn3)CCCC(=O)N([C@H](C)CO)C[C@H]2C)c(OC)c1", "growth inhibition call": "inactive"},
      {"molecule": "CC(C)(C)c1ccc(OC[C@@H](O)CN)cc1", "growth inhibition call": "active"},
      {"molecule": "COc1ccc(S(=O)(=O)N(C)C[C@H]2Oc3ccc(NC(=O)Cn4cnnn4)cc3CC(=O)N([C@H](C)CO)C[C@@H]2C)cc1", "growth inhibition call": "inactive"},
      {"molecule": "CCC(=O)N(C)C[C@@H]1Oc2ncc(C#C[C@H](C)O)cc2C(=O)N([C@H](C)CO)C[C@@H]1C", "growth inhibition call": "inactive"},
      {"molecule": "CO[C@H]1CN(C)C(=O)c2ccc(NS(=O)(=O)c3cn(C)cn3)cc2OC[C@H](C)N(CCC(F)(F)F)C[C@@H]1C", "growth inhibition call": "inactive"},
      {"molecule": "CCOC(=O)CSc1nc(=O)cc(C)[nH]1", "growth inhibition call": "inactive"},
      {"molecule": "COc1ccc(NC(=O)N(C)C[C@H]2Oc3ccc(NC(=O)Nc4cccc5ccccc45)cc3CC(=O)N([C@@H](C)CO)C[C@@H]2C)cc1", "growth inhibition call": "inactive"},
      {"molecule": "C=C1C(c2ccc(C)cc2)=CCc2cc(C)cc(C)c21", "growth inhibition call": "inactive"},
      {"molecule": "CC(=O)N=c1sc(S(N)(=O)=O)nn1C", "growth inhibition call": "inactive"},
      {"molecule": "COc1ccc(S(=O)(=O)Nc2ccc3c(c2)C(=O)N([C@H](C)CO)C[C@@H](C)[C@H](CN(C)C(=O)Nc2ccc(C(F)(F)F)cc2)OCCCC[C@H](C)O3)cc1", "growth inhibition call": "inactive"},
      {"molecule": "O=C(Cc1ccncc1)NCC[C@@H]1CC[C@H](NC(=O)C2CCOCC2)[C@@H](CO)O1", "growth inhibition call": "inactive"},
      {"molecule": "Cn1nc(O)c(=O)[nH]c1=S", "growth inhibition call": "inactive"},
      {"molecule": "CCS(=O)(=O)N1C[C@]2(CN(C2)C(=O)Nc2c(noc2C)C)c2c([nH]c3cc(ccc23)OC)[C@H]1CO", "growth inhibition call": "inactive"},
      {"molecule": "C[C@H](CO)N1C[C@H](C)[C@@H](CN(C)S(=O)(=O)c2ccccc2F)Oc2ncc(C#Cc3cccnc3)cc2C1=O", "growth inhibition call": "inactive"},
      {"molecule": "COc1ccc(NC(=O)Nc2ccc3c(c2)C(=O)N([C@@H](C)CO)C[C@@H](C)[C@@H](CN(C)Cc2ccccc2)OCCCC[C@H](C)O3)cc1", "growth inhibition call": "inactive"}
    ]}
  ]
}
